The values that follow come from the BET-seq Pho4 binding data (Le et al. 2018).

Some of the results follow. Values were computed here from the reads of four pooled replicates and scatter widely.

This assay concerns the target T1, Pho4 (S. cerevisiae) (UniProt P07270).
T1 sequence: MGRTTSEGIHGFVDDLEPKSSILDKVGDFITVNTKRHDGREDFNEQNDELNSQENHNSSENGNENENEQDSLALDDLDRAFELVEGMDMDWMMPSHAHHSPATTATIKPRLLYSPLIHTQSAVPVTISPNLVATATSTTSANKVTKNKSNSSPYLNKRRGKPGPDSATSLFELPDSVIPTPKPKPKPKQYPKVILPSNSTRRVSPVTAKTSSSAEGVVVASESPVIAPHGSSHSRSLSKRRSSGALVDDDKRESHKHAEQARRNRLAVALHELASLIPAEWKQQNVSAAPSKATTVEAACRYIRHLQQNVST
In words: relative binding free energy (BET-seq); higher = weaker binding. Particulars: reference: library average.
Regarding TTGGCCACGTGGACGT, the “relative binding free energy” value came to 0 kcal/mol. Regarding AAGTGCACGTGGGCGA, the “relative binding free energy” value is -0.12 kcal/mol. The figure for AATATCACGTGAGATT is 0.31 kcal/mol. The figure for GGGTTCACGTGGGTAT is 0.27 kcal/mol; for AATGTCACGTGGAGAG it is 0.18 kcal/mol. To TTCTTCACGTGAGTTC belongs 0.43 kcal/mol; to ATTGTCACGTGAATGT, 0.21 kcal/mol. Take ATTGTCACGTGTCATA: the “relative binding free energy” value was 0.1 kcal/mol. To AGGGGCACGTGAATAT belongs 0.19 kcal/mol. TGGAACACGTGGTTAG: the “relative binding free energy” value amounted to 0 kcal/mol. To GGGAACACGTGAGAGT belongs 0.18 kcal/mol; to AGAGGCACGTGGGAGG, -0.24 kcal/mol; to GTTCGCACGTGTGAGA, 0.11 kcal/mol. To CTATGCACGTGTGGGG belongs 0.01 kcal/mol; to AGGTTCACGTGGGATT, 0.24 kcal/mol; to TGTAGCACGTGCTCGT, -0.16 kcal/mol.

Consider AGGGGCACGTGTTTAC, for which the “relative binding free energy” value is -0.12 kcal/mol. Turning to AGGTGCACGTGTCGAG, the “relative binding free energy” value came to 0.1 kcal/mol. To GCGTTCACGTGATGTT belongs 0.41 kcal/mol. For TACGTCACGTGGTTAT, the “relative binding free energy” value is -0.06 kcal/mol. To AGGGTCACGTGAGTTA belongs 0.34 kcal/mol; to TTTAGCACGTGAGTTA, 0.2 kcal/mol. The figure for GGTACCACGTGGGGGG is -0.16 kcal/mol; for GTGTACACGTGGCAAG it is 0.06 kcal/mol; for AGATGCACGTGGGTTC it is -0.06 kcal/mol. The figure for GGGGGCACGTGTATTC is -0.01 kcal/mol. In the case of ATCAACACGTGAGGGG, the “relative binding free energy” value was determined as 0.29 kcal/mol. The figure for TAGTTCACGTGATCGT is 0.31 kcal/mol; for CGTATCACGTGCTTGG it is 0.12 kcal/mol.

As for GGTAACACGTGCTGTT, the “relative binding free energy” value is -0.12 kcal/mol. Regarding ATGGGCACGTGGGGCA, the “relative binding free energy” value was -0.25 kcal/mol.

For TCGTGCACGTGTTTCT, the “relative binding free energy” value is 0.02 kcal/mol. The figure for AGGGTCACGTGTATGA is 0.19 kcal/mol. To GAGTTCACGTGGAAAG belongs 0.43 kcal/mol; to TGCTTCACGTGTGGGA, 0.22 kcal/mol. To GCTTTCACGTGTTATG belongs 0.26 kcal/mol. For AAGGGCACGTGGGGTG, the “relative binding free energy” value is -0.3 kcal/mol. To AGGCGCACGTGGTAAT belongs -0.09 kcal/mol; to AGAGACACGTGTGTTA, -0.02 kcal/mol; to TTAGTCACGTGGGCGA, -0.17 kcal/mol. Regarding TATGCCACGTGTATGG, the “relative binding free energy” value was -0.18 kcal/mol. To TGTGTCACGTGGATGA belongs 0.12 kcal/mol. To TGATACACGTGAGGAG belongs 0.34 kcal/mol.

Turning to GTGGACACGTGTGAGG, the “relative binding free energy” value stood at 0.17 kcal/mol. The figure for CGCGGCACGTGCTGTG is -0.1 kcal/mol; for TTGTCCACGTGTGTGG it is 0.04 kcal/mol. The figure for AGGCCCACGTGGGTTT is -0.09 kcal/mol; for TATTACACGTGTAGGC it is 0.23 kcal/mol; for ATATGCACGTGGTCAT it is -0.26 kcal/mol.

Take AGTCGCACGTGTATAG: the “relative binding free energy” value was found to be 0.04 kcal/mol.

Turning to ATAGGCACGTGAATTA, the “relative binding free energy” value amounted to 0.05 kcal/mol. In the case of TCGGTCACGTGTTCGG, the “relative binding free energy” value is -0.08 kcal/mol.

For GGATTCACGTGGATTG, the “relative binding free energy” value came out at 0.44 kcal/mol. The figure for TCGAACACGTGGTGGT is 0.01 kcal/mol; for GGTTTCACGTGATCGA it is 0.26 kcal/mol. To GATTTCACGTGAATTA belongs 0.47 kcal/mol. In the case of TAATACACGTGGATTG, the “relative binding free energy” value was -0.02 kcal/mol.

Take CTGGGCACGTGTGAAA: the “relative binding free energy” value is -0.01 kcal/mol. The figure for GTATACACGTGGTGCG is -0.18 kcal/mol; for TGACGCACGTGTTAGT it is -0.02 kcal/mol. To AGTGACACGTGAGGGG belongs 0.19 kcal/mol. The figure for AATTACACGTGACGGT is 0.29 kcal/mol. Take CAGGTCACGTGTTGGA: the “relative binding free energy” value was -0.01 kcal/mol. The figure for GGTGACACGTGAGGCT is 0.16 kcal/mol; for TTGATCACGTGAAAGT it is 0.38 kcal/mol.

Turning to GTTCTCACGTGTAGGC, the “relative binding free energy” value amounted to 0.26 kcal/mol. As for GTCCGCACGTGTGGTT, the “relative binding free energy” value stood at 0.15 kcal/mol. As to GTTTTCACGTGATAAT, the “relative binding free energy” value came out at 0.49 kcal/mol. With CACAGCACGTGTGGGT, the “relative binding free energy” value is -0.05 kcal/mol. To GTCTTCACGTGGAATG belongs 0.35 kcal/mol; to TGGAGCACGTGTTAGC, -0.04 kcal/mol; to GTGACCACGTGGGGAG, -0.09 kcal/mol.

As to TGTTGCACGTGTACGC, the “relative binding free energy” value was 0.05 kcal/mol. The figure for CGTTTCACGTGTTTTA is 0.27 kcal/mol; for GAGGACACGTGTCGTT it is 0.23 kcal/mol; for GTGATCACGTGTGTTC it is 0.09 kcal/mol. To GCCAGCACGTGGGTGT belongs -0.17 kcal/mol.

For TTCGTCACGTGTTCAT, the “relative binding free energy” value amounted to 0.12 kcal/mol.

As for GTCCGCACGTGTTGGA, the “relative binding free energy” value was determined as 0.12 kcal/mol. To TGTAACACGTGGTATA belongs -0.16 kcal/mol.

As to TAAAGCACGTGGCGTT, the “relative binding free energy” value came to 0.01 kcal/mol. Consider CTCTTCACGTGGTTTG, for which the “relative binding free energy” value was found to be 0.09 kcal/mol. To GGTATCACGTGAGATT belongs 0.32 kcal/mol. The figure for TGTTACACGTGGTCTA is -0.12 kcal/mol.

CTGAACACGTGTGTTT: the “relative binding free energy” value stood at 0.01 kcal/mol. The figure for GGGGTCACGTGTCTGC is 0.13 kcal/mol; for TGAATCACGTGTATTT it is 0.27 kcal/mol; for GTTATCACGTGGAGCT it is 0.13 kcal/mol. As for GGGGTCACGTGTGAAT, the “relative binding free energy” value worked out at 0.22 kcal/mol.

With AGAGGCACGTGTGGTG, the “relative binding free energy” value is -0.06 kcal/mol.

Take AGGGTCACGTGTTTAA: the “relative binding free energy” value was determined as 0 kcal/mol. Regarding TGTTGCACGTGCACGG, the “relative binding free energy” value is -0.07 kcal/mol.

For the sequence TAGGACACGTGTTTCG, the “relative binding free energy” value was -0.05 kcal/mol.

As to GTTGACACGTGAAAGT, the “relative binding free energy” value came to 0.27 kcal/mol. Take GGGGGCACGTGAGTTT: the “relative binding free energy” value came out at 0.24 kcal/mol. The figure for GGGTGCACGTGCATGC is -0.05 kcal/mol; for TTGAACACGTGAAGGT it is 0.25 kcal/mol; for TTGGTCACGTGTAGAC it is 0.13 kcal/mol.

For ACGTGCACGTGTTGGC, the “relative binding free energy” value was 0.07 kcal/mol. The figure for TTATGCACGTGGGATT is 0.01 kcal/mol; for ATAGTCACGTGTTCTA it is 0.13 kcal/mol; for AGATTCACGTGCTGGA it is 0.25 kcal/mol. Consider GTAAGCACGTGATAGG, for which the “relative binding free energy” value is 0.04 kcal/mol. The figure for GGGGGCACGTGGATGA is -0.1 kcal/mol; for AGTGCCACGTGCGTGT it is -0.2 kcal/mol. To GGAGGCACGTGTGTAG belongs -0.09 kcal/mol; to GATTTCACGTGTGTCA, 0.24 kcal/mol; to AAGCGCACGTGGGATG, -0.22 kcal/mol. The figure for GTGATCACGTGGATAT is 0.22 kcal/mol; for TCTATCACGTGGGGTT it is -0.02 kcal/mol; for CGTGCCACGTGGCAGG it is -0.14 kcal/mol. On to CTTTGCACGTGTGCTT, for which the “relative binding free energy” value was determined as 0.03 kcal/mol. On to GCGGTCACGTGATGCT, for which the “relative binding free energy” value turned out to be 0.24 kcal/mol.

In the case of TCACGCACGTGAGGGG, the “relative binding free energy” value is 0.05 kcal/mol. With GGGGTCACGTGGTAGG, the “relative binding free energy” value is 0.17 kcal/mol.
